Experimental findings from the supplement of paper PMC10338343 are described below.

± gives the standard deviation. The full ranking holds about 5,500 sequences; the median of “pre-steady-state target cleavage rate” is about 0.1, and the highest 2% start at about 0.64. The entries are a selection whose mix differs from that of the whole data set.

In the assay the test system is MIWI (PIWIL1) piRISC loaded with piRNA #2 (30 nt). The assay is described as follows: pre-steady-state target cleavage rate (min^-1); MIWI and MILI are mouse PIWI proteins and EfPiwi is from a freshwater sponge; tags in brackets are library labels; higher = faster piRNA-guided slicing of the target. As to conditions: guide: piRNA #2 5'p-UUAGGUAACCCAGUAGAUCCAGAGGAAUUC; auxiliary factor: 500 nM mouse GTSF1. The method, then: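 Cleave-'n-Seq: a library of target RNAs (target site embedded in constant flanks, ACAGCATTCCGCGTTAGTGATATCCG... 5' flank; DNA-blocked outside the site) at 0.1 nM was incubated with 1 nM active mouse MILI or MIWI piRISC (synthetic 5'-monophosphorylated piRNA guide) with or without 500 nM mouse GTSF1 at 33 °C for 1 min to 16 h. Uncleaved targets were sequenced and normalised to non-target controls, and the pooled three trials were fitted to a burst-and-steady-state model to give the pre-steady-state cleavage rate (min^-1; k3 is constrained to at most 1e-4). Sequence is the target site only; target names encode pairing extent (gX:gY) and contiguous / 1-mismatch / 2-mismatch / bulge geometry. Fits with R² ≤ 0 are excluded.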
As to CUAUUCCUCGGGAUCUACUGGGUUACCUAA, the “pre-steady-state target cleavage rate” value was 0.31 ± 0.076.

Take CUUAAGGAGAGGAUCUACUGGGUUCACCUAA: the “pre-steady-state target cleavage rate” value stood at 0.00996 ± 0.004. Consider CUUUUCCUCUGGAUCUACUGGGUAACCAAA, for which the “pre-steady-state target cleavage rate” value was 0.13 ± 0.034. Take CUUAACCUCUGGAUCUACUGGUUUACCUAA: the “pre-steady-state target cleavage rate” value worked out at 0.153 ± 0.012. With CUUUUCCUCUGGAUCUAAUGGGUUACCUAA, the “pre-steady-state target cleavage rate” value was found to be 0.199 ± 0.025. Then CUUAUCCUCUGCAUCUACUGGGUAACCUAA, with 0.15 ± 0.017.

In the case of CUUAAGCUCUGGAUGUACUGGGUUACCAAA, the “pre-steady-state target cleavage rate” value was 0.168 ± 0.02. For the sequence CUUAUCCUCUGGAUGUACUGGGUUAGCUAA, the “pre-steady-state target cleavage rate” value amounted to 0.216 ± 0.025.

Turning to CUUUUCCUCAGGAUCUACUGGGUUACCUUA, the “pre-steady-state target cleavage rate” value was 0.515 ± 0.066. Then CAAAUCCUCUGCAUCUACUGGGUUACCUAA, with 0.473 ± 0.036; and GAAUACCUCUGGAUCUACUGGGAUACCUAA, with 0.167 ± 0.019; and CUAUUCCUCUGCAUCUACUGGGAUACCUAA, with 0.168 ± 0.023. Then CUAUAGCUCUGGAUCUACUGGGUUACCUAA, with 0.0962 ± 0.022. In the case of CUAUUCCGUCUGGAUCUACUGGGUUACCUAA, the “pre-steady-state target cleavage rate” value stood at 0.468 ± 0.049. For the sequence GAAUUCCUCUGCGAUCUACUGGGUUACCUAA, the “pre-steady-state target cleavage rate” value was 0.552 ± 0.057. With CAAUUCCUCUGGAUGUACUCGGUUACCUAA, the “pre-steady-state target cleavage rate” value is 0.103 ± 0.028. As for CUUUUGCACUGGAUCUACUGGGUUACCUAA, the “pre-steady-state target cleavage rate” value stood at 0.429 ± 0.048.

Regarding CAAUUCCUGUGGAUCUACUGGGUUACCAAA, the “pre-steady-state target cleavage rate” value came to 0.233 ± 0.056. In the case of CUUAAGGAGAGGAUCUACUGGGUUAGCCUAA it was 0.00467 ± 0.0037; in that of CUUUUCCUCUGAAUCUACUGGGUUACCUAA, 0.224 ± 0.036; in that of CUUAUCCUCUGGAACUACUGGGUUACCUUA, 0.254 ± 0.03. Then CUUAAGGUCAGGAUCUACUGGGUUACCUUA, with 0.0185 ± 0.0063; and CCAUUCCUCUGGAUCUACUGGGUUACCUAA, with 0.512 ± 0.05. With CAAUACCUCUGGAUGUACUGGGUUACCUAA, the “pre-steady-state target cleavage rate” value was 0.612 ± 0.043.

Regarding CUUAUCCUCUGGAUCUACUGGGUAUGCUAA, the “pre-steady-state target cleavage rate” value was found to be 0.0153 ± 0.005. For CUAUUCGUCAGGAUCUACUGGGUUACCUAA, the “pre-steady-state target cleavage rate” value is 0.429 ± 0.062.

With CUUUUCCUCUGGAUCUACUGCGUUUCCUAA, the “pre-steady-state target cleavage rate” value came to 0.119 ± 0.024. For CUUAAGGAGUGGUAUCUACUGGGUUACCUAA, the “pre-steady-state target cleavage rate” value came to 0.0169 ± 0.0045. Take CUAUUCCCUGGAUCUACUGGGUUACCUAA: the “pre-steady-state target cleavage rate” value came to 0.538 ± 0.044. As to CUUAAGCUCUGGUUCUACUGCGUUACCUAA, the “pre-steady-state target cleavage rate” value was determined as 0.372 ± 0.046.

For the sequence CUUAAGGUCUGGAUCUACUGGGUUAGCUUA, the “pre-steady-state target cleavage rate” value came to 0.0462 ± 0.015. For the sequence CUUAAGGACAGGAUCUACAGGGUUACCUAA, the “pre-steady-state target cleavage rate” value stood at 0.0125 ± 0.0063.

On to CAAUUCCUCUGGAUCUAGUGGGAUACCUAA, for which the “pre-steady-state target cleavage rate” value came to 0.107 ± 0.022.

On to CUUAAGGAGUGGAUUCUACUGGGUUACCUAA, for which the “pre-steady-state target cleavage rate” value came out at 0.0115 ± 0.0028. For the sequence CAAUUCCUCUGGAACUACUGGGUUACCUUA, the “pre-steady-state target cleavage rate” value worked out at 0.387 ± 0.059.

For CUUUUCCUCUGGAUCUAGUGGGAUACCUAA, the “pre-steady-state target cleavage rate” value was 0.0842 ± 0.013. As for GAAUUCCUCUGGUUCUACAGGGUUACCUAA, the “pre-steady-state target cleavage rate” value came out at 0.472 ± 0.043. Then GAAUUCCUCUGGAUCAACUGGGUUACCAAA, with 0.294 ± 0.039; and CUUAAGGUCUCGAUCUACUGGGUUUCCUAA, with 0.0622 ± 0.013. Then CUUAAGCUCUGGUUCUACUGGGUUACCUAA, with 0.267 ± 0.026; and CUUUUCCUCUGGAUCUACACGGUUACCUAA, with 0.199 ± 0.022. CUUAAGCUCUGGAUGAACUGGGUUACCUAA: the “pre-steady-state target cleavage rate” value turned out to be 0.0941 ± 0.021. Take CUUAAGGAGUGGUUCUACUGGCUUACCUAA: the “pre-steady-state target cleavage rate” value was 0.00805 ± 0.0069.

Take CUAUUCCUCUGGAACUACUCGGUUACCUAA: the “pre-steady-state target cleavage rate” value turned out to be 0.117 ± 0.019. In the case of CAAUUCCUCUGGAUCUACUGGGUUACCAA it was 0.501 ± 0.08; in that of CUUAACCUCAGGAUCAACUGGGUUACCUAA, 0.303 ± 0.033. Consider GAAUUUCCUCUGGAUCUACUGGGUUACCUAA, for which the “pre-steady-state target cleavage rate” value turned out to be 0.194 ± 0.049.

Consider CUUAAGGAGAUGAUCUACUGGGUUACCUAA, for which the “pre-steady-state target cleavage rate” value was 0.0054 ± 0.0031. In the case of CUAUUCCUCUGGAUCUACGGGGUUACCUAA, the “pre-steady-state target cleavage rate” value was 0.0778 ± 0.0061. As for CUUAAGGUCUGGAUCUAGUGGGUUACCUAA, the “pre-steady-state target cleavage rate” value came to 0.106 ± 0.011. Then CUAUUCGUCUGGUUCUACUGGGUUACCUAA, with 0.513 ± 0.042. Turning to CUUAAGGAGAGGAUCUACUGGGUUACGUAA, the “pre-steady-state target cleavage rate” value came out at 0.0626 ± 0.018. In the case of CUUAAGGACUGGAUGUACUGGCUUACCUAA it was 0.0448 ± 0.029.

As to CUUAUCCUCUGGAUCUACAGGGUAACCUAA, the “pre-steady-state target cleavage rate” value amounted to 0.128 ± 0.023. Consider CUUUUCCUCUGGGUCUACUGGGUUACCUAA, for which the “pre-steady-state target cleavage rate” value came to 0.365 ± 0.028. Turning to GAUUUCCUCUGGAUGUACUGGGUUACCUAA, the “pre-steady-state target cleavage rate” value worked out at 0.227 ± 0.053. For the sequence GAAUUCCUGUGGAUCUAGUGGGUUACCUAA, the “pre-steady-state target cleavage rate” value came out at 0.287 ± 0.022.

Regarding CUUAAGGUCUGGAACUACUGGGUUACCUUA, the “pre-steady-state target cleavage rate” value came out at 0.0754 ± 0.017.

In the case of CUUAAGGACUGGAUCUACGGGGUUACCUAA, the “pre-steady-state target cleavage rate” value was 0.0351 ± 0.015.

With CUUAAGGUCUGUGAUCUACUGGGUUACCUAA, the “pre-steady-state target cleavage rate” value was 0.151 ± 0.046. In the case of GAAUUCCUCAGGAUCUACUGGGUUACCUAA, the “pre-steady-state target cleavage rate” value was 0.483 ± 0.048. As for CAAUUCCUCAGGAACUACUGGGUUACCUAA, the “pre-steady-state target cleavage rate” value was determined as 0.365 ± 0.042. CUUAACCUCUGGAUCUACUCGGUUAGCUAA: the “pre-steady-state target cleavage rate” value is 0.0154 ± 0.0085.

For the sequence CUUAACCUUGGAUCUACUGGGUUACCUAA, the “pre-steady-state target cleavage rate” value was found to be 0.351 ± 0.022. Consider CUUAAGGACUGGAUGUACUGGGUUUCCUAA, for which the “pre-steady-state target cleavage rate” value is 0.0279 ± 0.023. As for CUUUUCCUCUGGAUGAUCUGGGUUACCUAA, the “pre-steady-state target cleavage rate” value was 0.0123 ± 0.0037. Turning to CUUAAGGUCUGGAUCUACUCGGUUUCCUAA, the “pre-steady-state target cleavage rate” value was 0.00651 ± 0.0052. On to CUUAAGGAGUGGAUCUACCGGGUUACCUAA, for which the “pre-steady-state target cleavage rate” value is 0.00592 ± 0.0031. Then CUUAUCCUCUGGAUCUACUGGGUCACCUAA, with 0.322 ± 0.064; and GAAUUCCUCUGUGAUCUACUGGGUUACCUAA, with 0.334 ± 0.038. For the sequence CUAUUCGUCUGGAACUACUGGGUUACCUAA, the “pre-steady-state target cleavage rate” value was 0.447 ± 0.039. In the case of CAAUUCCUCUGGAUCUACUGGGUUACGCUAA it was 0.538 ± 0.063.
